In publication PMC12136788:
The list shows a part of the results.

T1: UNK ZnF1-3 (human, UniProt Q9C0B0 31-174)
T1 sequence: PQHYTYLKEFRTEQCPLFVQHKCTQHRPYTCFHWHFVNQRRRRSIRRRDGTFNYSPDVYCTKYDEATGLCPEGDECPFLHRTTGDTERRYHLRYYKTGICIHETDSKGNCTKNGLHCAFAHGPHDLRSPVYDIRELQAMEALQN

B1: chr2:5814250:5814251:-_ENSMUSG00000025816_ENSMUST00000102981|mus_hu|FALSE|FALSE (ssRNA)
RNA: GGGAGUUCUACAGUCCGACGAUCUUCCUUUCCGGUUUCUGAAUUUCUGGUAGAACUGCACAGAAUGGUUUGAUAACUUCUAAAAAUUUGAUGCCCAUGGCUGCUGCUGGGGAGGCCCAGGGGGAAACCGCGGCCUCGGCGCUGCAACAGAGGAUUGAGCAUCA
B2: chr4:144460044:144460045:+_ENSG00000153147_ENST00000283131|hu_mus|hu_hu_hu_mus_False|1_28 (ssRNA)
RNA: GGGAGUUCUACAGUCCGACGAUCACGGUCCAUAGCCUGAAGAUCAACUUGCGGAUUCCAAUCUGAGUCAUAUAAAAUGACUACAUCAGCAGUUGCAAGAUUGAUGCCAAGACCACCAGCACGUGUGCUUAGCAUAAAAACAAACAACAGAGGAUUGAGCAUCA
B3: chr12:16048344:16048345:+_ENSG00000023734_ENST00000419869|hu_hu|hu_hu_hu_mus_True|8_78 (ssRNA)
RNA: GGGAGUUCUACAGUCCGACGAUCAGAUCGUCCAUAAGUAAUAACCAAAAUCUCUCCCUCAGGAAUAUACUCCAUGCUGCUAACAGACAUAUUAAAAUUCAGAGAUUUCACUUCUGUCAUUGUGGCAUGAUCCCAAAGCCGAACCAACAGAGGAUUGAGCAUCA
B4: chr7:56126341:56126342:+_ENSG00000146731_ENST00000540286|hu_mus|hu_hu_hu_mus_True|1_108 (ssRNA)
RNA: GGGAGUUCUACAGUCCGACGAUCCAUAUUUCUCCUUUUGGCUCUGCGCAGAGCUACGAUCCCUUCUUUCGCAAGGGCAUCUAAGGAAAAGGGGUCAAUCCCCUUUUGAUUAAUAACGACAAAUCCUUUAUCUGAGUCGCCACACAACAGAGGAUUGAGCAUCA
B5: chr1:163117127:163117128:-_ENSG00000143248_ENST00000313961|hu_mus|hu_hu_hu_mus_False|38_48 (ssRNA)
RNA: GGGAGUUCUACAGUCCGACGAUCUGCUACAAAGGAUGUAACUCAACUCACAGGGCAACUUUUGGAAGCCUGACCAGAUGACUACUUGAUUAACUCCUGAUAAAACUCAGAGCGCACAAAGCGGGGCAGAGAAUCCUUCUCCAUCAACAGAGGAUUGAGCAUCA
B6: 113315486_113315606_1080_CDS_ENSG00000125630_ENST00000417433|human|control|control (ssRNA)
RNA: GGGAGUUCUACAGUCCGACGAUCAAGGUCUAUGCCCAUUGUAAAAAUCCUCAUCAAAUUGUCAGUGUUCAUGGAAACACUGGUCUUCUGAGCCUUCUUAUCAAAAGCUAUUUUAAUAGACACUAACCAACCUUCCAGUUUUUCCAACAGAGGAUUGAGCAUCA
B7: chr21:38528988:38528989:+_ENSG00000182670_ENST00000355666|hu_mus|FALSE|FALSE (ssRNA)
RNA: GGGAGUUCUACAGUCCGACGAUCGAAAUCAAGCUCCUUGAGAGAUGCUCCGUACCGAGUGAAAAAGGGUCCUAUGGCAUCCAAGCCAAAACUAUUCAGUCUCUGGAUCCAGGGAGCCAACUUGGGGUCUAACUCUUUAAGCUCCAACAGAGGAUUGAGCAUCA
B8: chr4:48472875:48472876:-_ENSMUSG00000028345_ENSMUST00000030030|mus_hu|motif|central (ssRNA)
RNA: GGGAGUUCUACAGUCCGACGAUCACUAUUUAGCCUAGAGCCAUCUUCAAGGGUCUCUGUUACAAAUUUCCUUAUCAUUUCGGUCCAACUGCAAUCCUUCUGCAAAGUUGACGCAUUUGCCAGGGAGACCAUGAUAUCAGACAGCAACAGAGGAUUGAGCAUCA
B9: chr8:104444897:104444898:+_ENSG00000164934_ENST00000297579|hu_hu|motif|central (ssRNA)
RNA: GGGAGUUCUACAGUCCGACGAUCUGCUGUAAAAAUGAAAGCUUCCAUAGGGUUCCAACAGAUUGUAUUUGUUCUCAUAUCGGAGAUAACCUUUUUCAAAGGAGUAGCUUGCCUCAUAUCGUACAGUACUAUAUUCCUGUCAGACAACAGAGGAUUGAGCAUCA
B10: chr13:59231463:59231464:+_ENSMUSG00000055254_ENSMUST00000079828|mus_mus|motif|central (ssRNA)
RNA: GGGAGUUCUACAGUCCGACGAUCAAAUGGAAACACUGGUCUCCCUCGGUCUAAAUGACUACCCAAAUACCUGUAAAUUUCGGUAUAAAUUUACCCUCUCUUUUCGGAAAACCAAUGACCAUGUGCGGGCGCAAAUCUCCAGGCCAACAGAGGAUUGAGCAUCA
B11: chr11:4127340:4127341:+_ENSG00000167325_ENST00000300738|hu_mus|hu_hu_hu_mus_False|58_78 (ssRNA)
RNA: GGGAGUUCUACAGUCCGACGAUCGGCAUAGUCAGGGUGCUUCGUGGUCAAGGUCGCAGCUGUUUCAGCAGCCAGGGUAUCUAGUUCCACUGUGGUGACCCCACUAUAUAGGCCUUGGAUUACUUUCAUGGUGAUCUGAGCAGGCAACAGAGGAUUGAGCAUCA
B12: chr10:41618152:41618153:+_ENSMUSG00000038332_ENSMUST00000041438|mus_hu|motif|central (ssRNA)
RNA: GGGAGUUCUACAGUCCGACGAUCCGGCAUCUCAUCCACACUGUGAUUGCCAUUUGUAAUGUCACAGAUGCAGUAGUUGCGGACAGAAGGAGGUCUGAAUGUGUGGCCACCAUCACAAUGAAUUUCUGGACUGAUUCCACAGCCCAACAGAGGAUUGAGCAUCA
B13: chr6:40197388:40197389:+_ENSMUSG00000057716_ENSMUST00000061740|mus_mus|mus_mus_mus_hu_False|38_38 (ssRNA)
RNA: GGGAGUUCUACAGUCCGACGAUCGAGACACUGGGGUGGAUUUAUUCCACCUCUGUUUGGGUGCUAGCCACUAAGACUGUUAUUUUGGGAUUCAUGGCCUUGAAGAUCAAGAGGGAAAGGAAGAGGAUGGAAAGAGUCAAGAGUCAACAGAGGAUUGAGCAUCA
B14: chr7:93623566:93623567:-_ENSG00000105829_ENST00000222547|hu_mus|FALSE|FALSE (ssRNA)
RNA: GGGAGUUCUACAGUCCGACGAUCCAACAAAUUCAAAGCCCACACUAACUUCCAUCACCUCAGUUUAAUAAUCCAAUAAAUGACAAAAAAGACAAACAAUGAAAACAGCAUCAUAUAGCAUAGCAAUUUUGUUUGGCUCCCUCUCAACAGAGGAUUGAGCAUCA
B15: chr11:87793471:87793472:-_ENSMUSG00000020483_ENSMUST00000020775|mus_mus|mus_mus_mus_hu_False|58_88 (ssRNA)
RNA: GGGAGUUCUACAGUCCGACGAUCUGGACUUGAAAAUAAAAGAAUAAGCUAGAUUUCCCACCCCCCCACAUUGUCAACCCUAUGCGAGAGUUUUGAAGGCGACUCAUGAAAAUCAGCAGCUCAAACGGCAAUGACCACCCCACCCAACAGAGGAUUGAGCAUCA
B16: chr5:128441001:128441002:+_ENSG00000066583_ENST00000173527|hu_mus|motif|central (ssRNA)
RNA: GGGAGUUCUACAGUCCGACGAUCACACACGUGCGUUUCUACUCCAAACAACACGACACUCCGGACGCCAGGAAUCUCGGCGGACGCUGCUUCGACUUCAGGUAACACCAUAGAAAACUUGGUCUUUGGAAGAACCAGUUUCACCAACAGAGGAUUGAGCAUCA
B17: chr4:11888808:11888809:-_ENSMUSG00000049225_ENSMUST00000108301|mus_hu|motif|central (ssRNA)
RNA: GGGAGUUCUACAGUCCGACGAUCGUGCUUGUGCCACUGGAGAAUGGGUAGCAGUGCCCGGCCGCUCUCCACUGCAUUUUCAAUCUCGGGCAAAGUCUCAUGGGGUAACAAAGAGACAGCAAUAUAAUAAAAGAGUCUUUCACUCAACAGAGGAUUGAGCAUCA
B18: chr1:66463027:66463028:+_ENSMUSG00000015222_ENSMUST00000114013|mus_mus|motif|central (ssRNA)
RNA: GGGAGUUCUACAGUCCGACGAUCUUUUCUUUCAGGAGUGGAAAUUCUGCCUCUCCCGGUUUUAAAAGGCUUUUCUUUUCGGUGUUUCUCGAGAGACGGUCUCCGAGCAUCCUUCUCAGCUCUCUCCUCUUUAGGAAUAGUUUCCAACAGAGGAUUGAGCAUCA
B19: 79399197_79401693_468_CDS_ENSMUSG00000027804_ENSMUST00000029382|mouse|control|control (ssRNA)
RNA: GGGAGUUCUACAGUCCGACGAUCAGGAGUCGGAACUGUUGUGAUAAAGAACUGAGAGCCAUUCGUAUUGGGGCCUGCAUUUGCCAUGCUCAGCAAACCCUCCCGAUCAUGCUUAUAAUGAAAAUUUUCAUCUUCAAAUUUUUCCAACAGAGGAUUGAGCAUCA
B20: chr17:60770872:60770873:+_ENSG00000011028_ENST00000303375|hu_hu|hu_hu_hu_mus_True|18_98 (ssRNA)
RNA: GGGAGUUCUACAGUCCGACGAUCUCUUUAAAAAAAAUUCCUUUUUUACAAACAAUAAUAGCACAUUUCGAGAAUCAAGAACUACAAUAGAGGGUCCGCUUUGAGUUUUUGUUCACAACAUUGUCCCCUGGGACACGGGGACUGCAACAGAGGAUUGAGCAUCA
B21: 176015879_176032890_104_3pUTR_ENSG00000115966_ENST00000264110|human|control|control (ssRNA)
RNA: GGGAGUUCUACAGUCCGACGAUCUAGUACCCUUUCCAGGUCACUAGUUCAUGAUCCUUUCGGUCACCCGCGAGCCCUGAGCACAGCCGUGUUUACAAAGCACCCCUGGAGGAAAAGGCUGAACGGCACUUUAAAGGCCACGGGCAACAGAGGAUUGAGCAUCA
B22: chr13:31711309:31711310:-_ENSG00000120694_ENST00000320027|hu_mus|FALSE|FALSE (ssRNA)
RNA: GGGAGUUCUACAGUCCGACGAUCAGAGACUACACAGAUUCAAGCUUUUCCUUUUUUCCCCUCAUAAUACACAAAAUUUCUAGACAGUCUUAAAAAAAAGAAAAUAUAAAUAGACUCAGUCUGUUAUACAGGAUCACAUACUAUCAACAGAGGAUUGAGCAUCA

Target: T1, UNK ZnF1-3
Assay: nsRBNS (natural sequence RNA bind-n-seq); RBNS binding buffer (assumed for nsRBNS): 25 mM Tris pH 7.5, 150 mM KCl, 3 mM MgCl2, 0.01% Triton X-100, 500 ug/ml BSA, 20 U/ml SUPERase-In, 4 C; UNK is unkempt and MSI1 is Musashi-1; names of the RNAs are library labels; protein concentration not given here; high values mean tight binding

First: B1
Second: B2
The binding signal of the first is higher: 1.24 enrichment R for the first, 0.948 enrichment R for the second.

Compared with B3, B4 is lower in binding signal: 1.27 enrichment R for the first, 0.797 enrichment R for the second.

Going from B5 to B6, the binding signal falls from 1.16 enrichment R to 0.863 enrichment R.

Going from B7 to B8, the binding signal falls from 0.956 enrichment R to 0.816 enrichment R.

First: B9
Second: B10
The binding signal of the first is higher: 1.52 enrichment R for the first, 0.872 enrichment R for the second.

Going from B11 to B12, the binding signal rises from 0.986 enrichment R to 1.19 enrichment R.

Compared with B13, B14 is higher in binding signal: 1.44 enrichment R for the first, 2.36 enrichment R for the second.

Compared with B15, B16 is lower in binding signal: 2.02 enrichment R for the first, 1.26 enrichment R for the second.

First: B17
Second: B18
The binding signal of the first is higher: 1.5 enrichment R for the first, 0.405 enrichment R for the second.

First: B19
Second: B20
The binding signal of the first is lower: 0.639 enrichment R for the first, 1.5 enrichment R for the second.

Compared with B21, B22 is higher in binding signal: 0.514 enrichment R for the first, 1.95 enrichment R for the second.
